# Laboratory results taken from a collection of fitness landscapes (doi:10.1126/science.1257360).
# This is one part of the list.
# B1: PhoQ; a variant is named by its letters at X, in order, P23837 (parent)
# chain: MKKLLRLFFPLSLRVRFLLATAAVVLVLSLAYGMVALIGYSVSFDKTTFRLLRGESNLFYTLAKWENNKLHVELPENIDKQSPTMTLIYDENGQLLWAQRDVPWLMKMIQPDWLKSNGFHEIEADVNDTSLLLSGDHSIQQQLQEVREDDDDAEMTHSVAVNVYPATSRMPKLTIVVVDTIPVELKSSYMVWSWFIYVLSANLLLVIPLLWVAAWWSLRPIEALAKEVRELEEHNRELLNPATTRELTSLVRNLNRLLKSERERYDKYRTTLTDLTHSLKTPLXXLQXXLRSLRSEKMSVSDAEPVMLEQISRISQQIGYYLHRASMRGGTLLSRELHPVAPLLDNLTSALNKVYQRKGVNISLDISPEISFVGEQNDFVEVMGNVLDNACKYCLEFVEISARQTDEHLYIVVEDDGPGIPLSKREVIFDRGQRVDTLRPGQGVGLAVAREITEQYEGKIVAGESMLGGARMEVIFGRQHSAPKDE
# Variants of: B1
# Assay: enrichment ratio after two sorts for PhoP signalling (ratio (wild type AVST 3.29)); higher = more functional
# Conditions: with PhoP (E. coli)
row,Variant,enrichment ratio
1,GELW,≤ 0.25
2,SHMA,≤ 0.25
3,GQKC,≤ 0.25
4,MTTI,5.04
5,SNLN,6.01
6,DTYM,≤ 0.25
7,DFDR,≤ 0.25
8,LPAV,0.353
9,TSGV,10.7
10,GKSG,≤ 0.25
11,MVHT,≤ 0.25
12,MDKA,≤ 0.25
13,GNVP,≤ 0.25
14,IGTC,≤ 0.25
15,AMLQ,0.306
16,YYAG,≤ 0.25
17,AYVC,≤ 0.25
18,ASMW,5.78
19,PKAL,≤ 0.25
20,FHWI,≤ 0.25
21,EYFY,≤ 0.25
22,SVSG,13.4
23,FLMD,≤ 0.25
24,IAPV,≤ 0.25

row,Variant,enrichment ratio
1,IVPK,≤ 0.25
2,TAMA,5.5
3,SLFA,≤ 0.25
4,MGQW,≤ 0.25
5,MISP,≤ 0.25
6,KKLQ,≤ 0.25
7,RKYV,≤ 0.25
8,RNCF,≤ 0.25
9,WGVN,≤ 0.25
10,YNLV,1.85
11,QCVY,≤ 0.25
12,IEGQ,≤ 0.25
13,PQMY,≤ 0.25
14,QAWF,4.29
15,WDMN,≤ 0.25
16,CSIL,≤ 0.25
17,YWHP,≤ 0.25
18,MQHG,≤ 0.25
19,QEHH,6.98
20,MGYL,5.25
21,AYNL,≤ 0.25
22,KLKA,≤ 0.25
23,FSAH,0.363
24,QKRE,≤ 0.25

row,Variant,enrichment ratio
1,KYDQ,≤ 0.25
2,NWIF,≤ 0.25
3,WSYG,≤ 0.25
4,DINR,≤ 0.25
5,FNLK,≤ 0.25
6,VIFN,≤ 0.25
7,PIGP,≤ 0.25
8,SADI,≤ 0.25
9,GCDG,≤ 0.25
10,LPKY,≤ 0.25
11,NWSQ,≤ 0.25
12,VGCD,≤ 0.25
13,KHNV,≤ 0.25
14,KGHP,≤ 0.25
15,MRLK,≤ 0.25
16,WQGG,≤ 0.25
17,DHLV,≤ 0.25
18,VDTG,≤ 0.25
19,SERK,≤ 0.25
20,WHYY,≤ 0.25
21,KNHW,≤ 0.25
22,TWRI,≤ 0.25
23,INNQ,9.63
24,LYGS,≤ 0.25

row,Variant,enrichment ratio
1,RMKD,≤ 0.25
2,MWCV,≤ 0.25
3,HNAC,≤ 0.25
4,LIQK,≤ 0.25
5,VEAQ,≤ 0.25
6,GHSD,≤ 0.25
7,EFSE,≤ 0.25
8,WMAY,≤ 0.25
9,MRYE,≤ 0.25
10,LECI,3.94
11,TMRC,≤ 0.25
12,YIAW,0.346
13,STIV,11.9
14,MKIM,≤ 0.25
15,SWIS,≤ 0.25
16,EGRW,≤ 0.25
17,YIYH,≤ 0.25
18,YWQW,≤ 0.25
19,LNSL,≤ 0.25
20,FVPD,≤ 0.25
21,GHAY,≤ 0.25
22,IYFT,≤ 0.25
23,DCVT,≤ 0.25
24,VCYP,≤ 0.25

row,Variant,enrichment ratio
1,ACHR,≤ 0.25
2,QGFN,3.8
3,AKNP,≤ 0.25
4,IFSR,≤ 0.25
5,SGKS,≤ 0.25
6,SLLK,0.946
7,DTPN,≤ 0.25
8,VQPN,≤ 0.25
9,KNYC,≤ 0.25
10,EPGI,≤ 0.25
11,TCHN,≤ 0.25
12,YWSW,≤ 0.25
13,PGLI,≤ 0.25
14,LIVV,≤ 0.25
15,RDCP,≤ 0.25
16,LSEW,≤ 0.25
17,HATQ,≤ 0.25
18,SNIL,1.93
19,ENDA,≤ 0.25
20,WPFL,≤ 0.25
21,GHHH,≤ 0.25
22,KEAC,≤ 0.25
23,MNMA,≤ 0.25
24,PKIQ,≤ 0.25

row,Variant,enrichment ratio
1,SEIM,15.1
2,GVIC,≤ 0.25
3,VYLD,0.527
4,DYWI,≤ 0.25
5,GRMY,≤ 0.25
6,WCCG,≤ 0.25
7,AKVP,≤ 0.25
8,ECRI,≤ 0.25
9,DGCA,≤ 0.25
10,EPAI,≤ 0.25
11,ISDG,≤ 0.25
12,ARWI,≤ 0.25
13,ASGG,4.75
14,EMFF,≤ 0.25
15,TGPA,≤ 0.25
16,AHSY,≤ 0.25
17,NWAG,≤ 0.25
18,YWAP,≤ 0.25
19,EFQN,≤ 0.25
20,HVGW,≤ 0.25
21,PRMD,≤ 0.25
22,SDYH,≤ 0.25
23,PCVE,≤ 0.25
24,VAWL,4.11

row,Variant,enrichment ratio
1,NCNP,≤ 0.25
2,TVQL,16.7
3,FYID,≤ 0.25
4,LMYK,≤ 0.25
5,QSEI,≤ 0.25
6,NSSM,0.911
7,FWNI,≤ 0.25
8,ESDF,≤ 0.25
9,ALSY,6.65
10,EEWV,≤ 0.25
11,FWQG,≤ 0.25
12,IAKC,≤ 0.25
13,WLTH,≤ 0.25
14,NRVT,≤ 0.25
15,MPYP,≤ 0.25
16,STIN,7.01
17,PIID,≤ 0.25
18,TNHA,≤ 0.25
19,LPIR,≤ 0.25
20,APYF,≤ 0.25
21,SVFA,≤ 0.25
22,PGDM,≤ 0.25
23,GMMQ,≤ 0.25
24,MLYV,≤ 0.25

row,Variant,enrichment ratio
1,GLNE,≤ 0.25
2,ATGR,≤ 0.25
3,NCDD,≤ 0.25
4,SGNP,≤ 0.25
5,QHSQ,≤ 0.25
6,KHDL,≤ 0.25
7,LDNY,≤ 0.25
8,WTFT,≤ 0.25
9,FHTI,≤ 0.25
10,VWSC,≤ 0.25
11,QNWN,4.18
12,SEEK,≤ 0.25
13,GGNS,≤ 0.25
14,IRPA,≤ 0.25
15,TYDC,≤ 0.25
16,IYNT,≤ 0.25
17,SLQF,1.06
18,YADL,≤ 0.25
19,KQRC,≤ 0.25
20,SNWI,≤ 0.25
21,YMFN,≤ 0.25
22,RDSS,≤ 0.25
23,STVA,4.52
24,FDYR,≤ 0.25

row,Variant,enrichment ratio
1,GRKS,≤ 0.25
2,IWCY,≤ 0.25
3,KRMA,≤ 0.25
4,NSDW,≤ 0.25
5,PNTF,≤ 0.25
6,DVCP,1.78
7,FEMQ,9.2
8,NINL,≤ 0.25
9,STYL,0.375
10,LHQL,≤ 0.25
11,MLYR,≤ 0.25
12,YSLW,≤ 0.25
13,HWWT,≤ 0.25
14,NTYP,≤ 0.25
15,MNNM,≤ 0.25
16,QPMW,≤ 0.25
17,ERFS,≤ 0.25
18,NASH,≤ 0.25
19,CHCS,≤ 0.25
20,KVNL,≤ 0.25
21,EAHN,≤ 0.25
22,PCCM,≤ 0.25
23,HEII,≤ 0.25
24,TPGE,≤ 0.25

row,Variant,enrichment ratio
1,PITF,≤ 0.25
2,VHCP,≤ 0.25
3,VHDD,≤ 0.25
4,MWDT,≤ 0.25
5,RHWN,≤ 0.25
6,WEWL,≤ 0.25
7,DYMY,≤ 0.25
8,NRSQ,≤ 0.25
9,IRQL,≤ 0.25
10,LHPI,≤ 0.25
11,AISC,9.79
12,GASY,≤ 0.25
13,VCMC,1.73
14,HGKV,≤ 0.25
15,GDAD,≤ 0.25
16,IHGE,≤ 0.25
17,IAAN,≤ 0.25
18,HYME,≤ 0.25
19,HWIT,≤ 0.25
20,GYFG,≤ 0.25
21,LCDP,≤ 0.25
22,SPFQ,≤ 0.25
23,DKAT,≤ 0.25
24,LKGW,≤ 0.25

row,Variant,enrichment ratio
1,ASQH,≤ 0.25
2,KFGR,≤ 0.25
3,PATY,≤ 0.25
4,VNAT,1.79
5,ADYE,≤ 0.25
6,KNIS,≤ 0.25
7,PFVG,≤ 0.25
8,SDAL,≤ 0.25
9,RDTS,≤ 0.25
10,GNQT,≤ 0.25
11,HATN,≤ 0.25
12,WIPS,≤ 0.25
13,HWSW,≤ 0.25
14,FVRV,≤ 0.25
15,NWAD,≤ 0.25
16,SPYA,≤ 0.25
17,LWFD,≤ 0.25
18,DGNH,≤ 0.25
19,VNDL,≤ 0.25
20,YRQV,≤ 0.25
21,SWIT,≤ 0.25
22,ALYP,0.743
23,RHCH,≤ 0.25
24,GDEH,≤ 0.25

row,Variant,enrichment ratio
1,EGDL,≤ 0.25
2,RNNL,≤ 0.25
3,SGIL,4.9
4,NSHS,≤ 0.25
5,IDKT,≤ 0.25
6,DNAG,≤ 0.25
7,VIKN,≤ 0.25
8,MGNN,≤ 0.25
9,NWEL,≤ 0.25
10,LTTT,≤ 0.25
11,KCYY,≤ 0.25
12,IKGV,≤ 0.25
13,NMDS,≤ 0.25
14,NPVN,≤ 0.25
15,VNWE,≤ 0.25
16,LTQA,≤ 0.25
17,HEQM,8.33
18,MKLT,≤ 0.25
19,TMLH,≤ 0.25
20,SHIP,≤ 0.25
21,GVKP,≤ 0.25
22,IFIK,≤ 0.25
23,MQLH,0.839
24,YPSE,≤ 0.25

row,Variant,enrichment ratio
1,TNVD,≤ 0.25
2,NATS,≤ 0.25
3,AKYH,≤ 0.25
4,FPQA,≤ 0.25
5,QQLS,3.17
6,NSEY,≤ 0.25
7,GEFT,≤ 0.25
8,TLTM,19
9,NWPP,≤ 0.25
10,GYWW,≤ 0.25
11,ERVT,≤ 0.25
12,VYWN,≤ 0.25
13,NNWD,≤ 0.25
14,NLFD,≤ 0.25
15,FQVR,≤ 0.25
16,WTNR,≤ 0.25
17,YCHE,≤ 0.25
18,EFHP,≤ 0.25
